In the RNAGym collection of RNA variant scans (doi:10.1073/pnas.2313332121):
Variants at the background level are over-represented here.

B1: TPR 5TU (parent)
chain: GGAUCUUCUCGAUCUAACAAAAAAGACAAAUCUGCCACAAAGCUUGAGAGCAUCUUCGGAUGCAGAGGCGGCAGCCUUCGGUGGCGCGAUAGCGCCAACGUUCUCAACUAUGACACGCAAAACGCGUGCUCCGUUGAAUGGAGUUUAUCAUG

Variants of: B1
Assay: polymerase ribozyme fitness, log enrichment relative to wild type (log ratio); higher = more active; in vitro selection for triplet polymerase activity
In short: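 A single round of triplicate in vitro selection, including frozen incubation at −7 °C, was applied to PCR-built, transcribed mutant libraries of each subunit of a heterodimeric triplet polymerase ribozyme. Illumina sequencing of input and output libraries retained genotypes with ≥10 input reads and ≥1 read per output. Fitness is the base-2 logarithm of genotype enrichment divided by wild-type enrichment, from inverse-variance-weighted replicate averages.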

Row | Variant | polymerase ribozyme fitness (log ratio)
1 | C93A A150C | -3.74
2 | C93A C116A G126A G141C | ≤ -4.2
3 | C93A A138C U151C | ≤ -4.2
4 | G92U C103U G136U | -3.43
5 | C93A C96G C99U C116G C118U A119U U148C | ≤ -4.2
6 | C93G C95G G143C | ≤ -4.2
7 | C93A C108G | ≤ -4.2
8 | C96U A121U U139A | ≤ -4.2
9 | G92A U102G U104C C118A | ≤ -4.2
10 | C99G A107U | ≤ -4.2
11 | C99A A107G | ≤ -4.2
12 | G94A A107U C114U | ≤ -4.2
13 | G92C C123U U134C U139A | ≤ -4.2
14 | C93G C99A G140A | ≤ -4.2
15 | G92U A138G | -3.48
16 | G92A G133U | ≤ -4.2
17 | A91U C96U C103A U109C | ≤ -4.2
18 | C93A G141A | -1.74
19 | C96A C99G C108G | ≤ -4.2
20 | G92C A138G G140A | ≤ -4.2
21 | C93G U148C | ≤ -4.2
22 | C96U A110C A120U | ≤ -4.2
23 | C96A U134C A138G G141C | -4.07
24 | A91U C123A G124C U144G A147G | ≤ -4.2

Row | Variant | polymerase ribozyme fitness (log ratio)
25 | C96G U139G G140U C149A | ≤ -4.2
26 | G92C U135G | -3.12
27 | C95U C99A G117U U148A | ≤ -4.2
28 | C93U C123G U130G | ≤ -4.2
29 | C93U A107U C116U A142C | ≤ -4.2
30 | A98U C116A G141U | ≤ -4.2
31 | G92A C95A A98G G136C U139C | ≤ -4.2
32 | G92C G100A U130C A138U G141A | ≤ -4.2
33 | G94U U151G | ≤ -4.2
34 | G94U U151A | ≤ -4.2
35 | C96A A106G U109C | ≤ -4.2
36 | C93U C114U | -2.54
37 | C96G A138C | ≤ -4.2
38 | C96U C123U G136U | -2.2
39 | G92A U135A | ≤ -4.2
40 | C93U A97G G124A C131G U145A | ≤ -4.2
41 | G94A C103U A115C U148C | ≤ -4.2
42 | C95U C118U | -1.09
43 | A91G C118G G143C | ≤ -4.2
44 | G94A U101A A120U C149G | ≤ -4.2
45 | G94C U101C A113G A115C G133A | ≤ -4.2
46 | A91U U102G G140A | ≤ -4.2
47 | G92A C96U A106C G126A | ≤ -4.2
48 | G94C A106C C116U | -3.12

Row | Variant | polymerase ribozyme fitness (log ratio)
49 | C99U G143C | -2.66
50 | G94A C116A U148G | ≤ -4.2
51 | G92C U102A C108G G124C | ≤ -4.2
52 | C93U U151A | ≤ -4.2
53 | U101A A115U G141A | -2.17
54 | C95U G124C | -0.723
55 | C93A G143A | -2.78
56 | C93A C95G A119G U144G | ≤ -4.2
57 | G92A A150C G152U | ≤ -4.2
58 | A91C U144C | -4.19
59 | C96A G133C A137C | ≤ -4.2
60 | C96A A98U C103G U109A A121U | ≤ -4.2
61 | G94C G128U | -3.18
62 | C96G C116A A138C A147C | -3.36
63 | C93G G94A A97C | ≤ -4.2
64 | A91U C105U G126U | ≤ -4.2
65 | C93A A106G U134C | ≤ -4.2
66 | C96U U104G | -1.59
67 | A91G C149U | ≤ -4.2
68 | A91U C93A A122U G143C | ≤ -4.2
69 | A91U C103G | ≤ -4.2
70 | G92A C105U G141C | -3.39
71 | C93U A98G G124C | -1.76
72 | A91C C103G C108U | ≤ -4.2

Row | Variant | polymerase ribozyme fitness (log ratio)
73 | A97C A119G | 0.72
74 | C96G A97U C118A | -3.08
75 | C96U G124A | -0.382
76 | C96U G124U | -0.372
77 | C96A U146A U148A | -4.17
78 | C93U G128U | -3.6
79 | G92U A147C U148A | ≤ -4.2
80 | A98U A142U G143U A150U | ≤ -4.2
81 | A91G G140A | -4.12
82 | C96U A98G | -1.3
83 | C93U C103A C108G | ≤ -4.2
84 | C96G A107G C118G A150C | ≤ -4.2
85 | C93G U146G | -3.41
86 | C96A A150C | -3.12
87 | G94U C123G G141A U146C | -2.83
88 | A91U G141A U148C | ≤ -4.2
89 | C95G A113G U127C U135G U146C A150U | ≤ -4.2
90 | C93U A138C | ≤ -4.2
91 | C99G A115C G140U U148G | ≤ -4.2
92 | A91G C95G A119G | ≤ -4.2
93 | A91U G128C A138G | ≤ -4.2
94 | G92U C95U C149G | ≤ -4.2
95 | A97U C99G C108G | ≤ -4.2
96 | C99G A113C U135C | ≤ -4.2

Row | Variant | polymerase ribozyme fitness (log ratio)
97 | G92A U135G G141U U148C | ≤ -4.2
98 | A97G G133A | -3.61
99 | A91G A142C | -3.5
100 | G94A C96U G112A G126C G140C U144C | ≤ -4.2
101 | C93A A107G | ≤ -4.2
102 | G94A A106C G136A | -0.404
103 | C93G A150C | ≤ -4.2
104 | A91G C125G G141A | ≤ -4.2
105 | G92C C103G C116A G152C | ≤ -4.2
106 | A91U G124C | ≤ -4.2
107 | C93A G124C | -2.88
108 | G94U C95A G141C U148C | ≤ -4.2
109 | G92A C105A U127G C149U | ≤ -4.2
110 | C93A C125A | -1.68
111 | G94U C123U U148G | ≤ -4.2
112 | G94C A97U U111G A115U C149G | ≤ -4.2
113 | C93G C95U C103G G143C U144G | ≤ -4.2
114 | A98U C99G C108U A110U A122U G141C U146G | ≤ -4.2
115 | C96A U145A | 0.431
116 | C93G G143A U146G | ≤ -4.2
117 | C93A C95A C123G | ≤ -4.2
118 | A91C A119U | ≤ -4.2
119 | C93U A98G C103A | -2.73
120 | A91G C108U C116G G152A | -3.48

Row | Variant | polymerase ribozyme fitness (log ratio)
121 | A91U A115U | ≤ -4.2
122 | C95U A110U A113U A137C | ≤ -4.2
123 | C93U C99U C114G | -3.73
124 | A91C C95G C96G U148G | ≤ -4.2
125 | A98U C99U A107G | ≤ -4.2
126 | G100U A142C | -4.17
127 | C99U A107G | -4.16
128 | G92U U104G A107U | ≤ -4.2
129 | G92U A147C | -0.377
130 | G100U A121U A142G U144A U148G | ≤ -4.2
131 | A91C C95G | ≤ -4.2
132 | C95U C96A | -1.02
133 | G92C U148G | -3.89
134 | A91U A147U | -3.99
135 | A91U A106G | -4.01
136 | G100A A119G | ≤ -4.2
137 | G94U G140U | -3.84
138 | A91U G126U | ≤ -4.2
139 | C96A C125G | -0.535
140 | C96U A137U U146G | ≤ -4.2
141 | C99U G126U | -0.0913
142 | A91U A150G | ≤ -4.2
143 | A91C U102C U130G G133U U135C | ≤ -4.2
144 | A91G G133A G141U G143U | ≤ -4.2

Row | Variant | polymerase ribozyme fitness (log ratio)
145 | C93U A138G G140C A147U | ≤ -4.2
146 | G94C U135A G141A | -2.22
147 | C96U C108A A115G | ≤ -4.2
148 | G94A G117U A119C C131A A147U | ≤ -4.2
149 | G94C A98G G100A G141C | ≤ -4.2
150 | A91C C93U U104G | ≤ -4.2
151 | A98G U127C | -3.01
152 | C96G A113G C116A A147U | ≤ -4.2
153 | G94C A97U G136U | -3.38
154 | C95U A115U C116G G133U U135A U145A | ≤ -4.2
155 | G94A A113U A120U | -1.56
156 | C93U A107G A115U U148G | ≤ -4.2
157 | C93G U144A | -2.68
158 | C96U C103G C108A | ≤ -4.2
159 | A91U G143U U144C C149U | ≤ -4.2
160 | C96U C132A U134C A142C A150U | ≤ -4.2
161 | C93U A121C G140C | ≤ -4.2
162 | A91U A120G A142G U145G | ≤ -4.2
163 | C93G U144C A150C | ≤ -4.2
164 | C96U C99A G133C G141A | ≤ -4.2
165 | A91C U104A C114U C132U U139A | ≤ -4.2
166 | C96A C116U G136U A150G | -4.06
167 | G92A C93A A98G U146G | ≤ -4.2
